# Source: patent publication US10071110B2, “Phosphonate compounds” (priority 1999, dated 2018)
# System: HIV-1
# Details: HIV-1 plaque reduction, Table 5 data
substance,measurement,value
hexadecyloxypropyl-adefovir [HDP-ADV],logs more active than adefovir,more than 5 logs
